PMC4336329 (PLoS ONE, 2015)
Out of some 310,000 compounds screened, about 14,000 (4.5%) showed an effect of 50% or more. The effect is printed as a negative number. Some of the results follow.

Target: human ether-à-go-go-related gene (hERG) potassium channel (human, UniProt Q12809)
Experiment: primary screen, population patch clamp on CHO cells stably expressing hERG
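Further: peak tail current of the secondary pulse compared with the same well before compound.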

Chain of human ether-à-go-go-related gene (hERG) potassium channel (Q12809 whole entry, looked up): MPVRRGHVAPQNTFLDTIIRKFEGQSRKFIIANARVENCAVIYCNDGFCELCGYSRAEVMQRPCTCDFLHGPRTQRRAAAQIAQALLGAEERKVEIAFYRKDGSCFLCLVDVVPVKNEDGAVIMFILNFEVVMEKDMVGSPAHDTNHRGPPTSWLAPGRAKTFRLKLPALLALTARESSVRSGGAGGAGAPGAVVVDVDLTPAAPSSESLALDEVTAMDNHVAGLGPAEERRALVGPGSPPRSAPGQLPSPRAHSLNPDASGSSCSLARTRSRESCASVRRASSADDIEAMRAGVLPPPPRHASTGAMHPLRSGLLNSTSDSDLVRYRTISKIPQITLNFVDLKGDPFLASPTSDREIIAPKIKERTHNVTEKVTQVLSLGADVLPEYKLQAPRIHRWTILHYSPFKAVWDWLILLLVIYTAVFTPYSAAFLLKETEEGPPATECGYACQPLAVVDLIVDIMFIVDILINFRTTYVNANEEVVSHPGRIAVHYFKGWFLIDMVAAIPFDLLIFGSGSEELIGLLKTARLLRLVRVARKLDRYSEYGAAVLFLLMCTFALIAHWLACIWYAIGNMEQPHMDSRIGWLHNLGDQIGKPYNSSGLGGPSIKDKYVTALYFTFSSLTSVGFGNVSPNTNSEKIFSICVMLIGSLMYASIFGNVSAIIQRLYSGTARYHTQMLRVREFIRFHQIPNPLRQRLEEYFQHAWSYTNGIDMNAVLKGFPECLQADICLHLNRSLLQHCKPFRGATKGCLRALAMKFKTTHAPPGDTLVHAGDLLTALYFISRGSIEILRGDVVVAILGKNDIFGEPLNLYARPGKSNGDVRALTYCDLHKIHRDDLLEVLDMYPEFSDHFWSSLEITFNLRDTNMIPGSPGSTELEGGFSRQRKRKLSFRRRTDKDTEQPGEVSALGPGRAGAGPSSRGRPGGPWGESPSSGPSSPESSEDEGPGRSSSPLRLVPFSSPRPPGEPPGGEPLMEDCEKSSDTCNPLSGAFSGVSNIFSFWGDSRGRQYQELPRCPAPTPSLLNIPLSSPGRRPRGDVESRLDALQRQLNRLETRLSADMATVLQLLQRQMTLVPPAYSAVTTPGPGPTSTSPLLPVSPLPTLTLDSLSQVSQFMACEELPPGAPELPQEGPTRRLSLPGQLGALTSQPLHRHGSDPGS

Row | Structure (SMILES) | hERG current change (%, negative = inhibition) at 10uM [%]
1 | O=C(CSc1nc2c(sc3ccccc32)c(=O)n1CCCN1CCOCC1)NCC1CCCO1 (stereo not shown) | -14.3
2 | Cc1cc(C(F)F)nn1CC(=O)NC1CCCC1 | 1.56
3 | CO/N=C/C(=N\Nc1ccc(C)cc1)C(=O)c1ccc(OC)cc1 | 17.1
4 | CC1CCN(Cc2cc(=O)oc3cc(O)c(Cl)cc23)CC1 | 9.11
5 | Cc1nnc(NC(=O)CSc2ccc(-c3cccnc3)nn2)s1 | -3.15
6 | O=C(Nc1nnc(C2CC2)s1)c1ccccn1 | 6.44
7 | N#Cc1nc(-c2cccs2)oc1N1CCN(c2ccccc2)CC1 | 0.553
8 | CC1(C)NC(=O)N(CC(O)COc2ccc(-c3ccc(C#N)cc3)cc2)C1=O (stereo not shown) | -14.8
9 | O=C(O)CC(c1ccc(C(F)(F)F)cc1)N1Cc2ccccc2C1=O (stereo not shown) | 15.9
10 | COCCN(C(=O)CNC(=O)c1ccco1)C(C(=O)NC1CCCC1)c1ccc(OC)c(OC)c1 (stereo not shown) | -3.01
11 | Cc1occc1C(=O)Nc1sc2c(c1C(N)=O)CCCCC2 | 8.66
12 | CNc1nc(SCc2ccc(C)cc2)nc2c1CCCC2 | -3.23
13 | CN(C(=O)CSc1nnn(C)n1)c1ccccc1 | 10.7
14 | Cc1cc(C)n2nc(S(=O)(=O)NC(C)(C)C)nc2n1 | 16.5
15 | COc1ccc(-c2ccc3c(c2)c(-c2cccs2)c(-c2cc(OC)cc(OC)c2)n3C)cc1 | 19.6
16 | CC1CCc2c(sc(NC(=O)C3CCCO3)c2C#N)C1 (stereo not shown) | 9.45
17 | COc1ccc(/C=N/NC(=O)CNc2n[nH]c(=O)[nH]c2=O)cc1OC | 3.73
18 | O=C(Nc1cccc(Cl)c1)Nc1nc(-c2ccccc2)cs1 | 23.3
19 | CCN(CC(=O)Nc1ccc(NC(C)=O)cc1)C(=O)C1CCC1 | 12.5
20 | C=CCn1c(O)c(C=NCCN2CCOCC2)c(=O)[nH]c1=S | 4.84
21 | Cc1cccc(C(=O)Oc2ccc(/C=N/NC(=O)c3ccncc3)cc2)c1 | 3.1
22 | Cc1ccc(F)cc1NC(=O)N1c2ccccc2NC(=O)CC1C (stereo not shown) | 2.32

Row | Structure (SMILES) | hERG current change (%, negative = inhibition) at 10uM [%]
23 | CC(C)(C)c1ccc(NC(=O)COC(=O)C2(C)CC2(Cl)Cl)cc1 (stereo not shown) | 11.1
24 | CSc1ccc(CNCCCN(C)C)cc1.Cl | -9.77
25 | CCOC(=O)c1nnn(CC(=O)N2N=C(c3cccc4ccccc34)CC2c2ccccc2)c1C(=O)OCC (stereo not shown) | -2.78
26 | COCCCn1c(C)cc(C(=O)CN2c3cccc4cccc(c34)S2(=O)=O)c1C | -12.9
27 | Cc1cc(C)n(CC(O)CN(c2ccccc2)S(=O)(=O)c2ccc3ccccc3c2)n1 (stereo not shown) | -6.13
28 | Cc1ccccc1C1=NC(C(F)(F)F)(C(F)(F)F)c2c(n(C)c(=O)n(C)c2=O)N1 | 3.5
29 | CCOc1ccc(CNC(=O)Cn2c(=O)c3cccn3c3ccccc32)cc1 | 9.35
30 | O=C(c1cc2ccccc2oc1=O)N1CCC2(CC1)OCCO2 | -8.56
31 | CC(=O)c1ccc(NC(=S)Nc2ccn(Cc3ccc(Br)cc3)n2)cc1 | 14.5
32 | COC(=O)C1=NN(c2ccc(C)cc2)C2C(=O)N(c3ccccc3OC)C(=O)C12 (stereo not shown) | 8.27
33 | COc1ccc(/C=C/C(=O)c2cc(F)ccc2OC(=O)c2ccccc2)cc1OC | 0.112
34 | CCOC(=O)CNC(=O)CSc1ncnc2c1nnn2-c1ccc(F)cc1 | 7.2
35 | Cc1cc(C)c(NC(=O)CC(C)(C)C)c(Cl)c1 | 3.6
36 | CCCCSc1nnc([C@@H](NC(=O)OC(C)(C)C)C(C)C)o1 | -15.6
37 | CN(C)C(=O)Oc1cccc(OCc2n(C)c3ccccc3[n+]2C)c1.[Cl-] | 14.7
38 | O=C(Nc1ccc2c(c1)OCO2)C1CCN(C(=O)c2ccc([N+](=O)[O-])cc2)CC1 | -84.2
39 | CC1(C)Oc2ccc(C(=O)NN)cc2NC1=O | 17.5
40 | CCC1CCc2c(sc(N)c2C(N)=O)C1 (stereo not shown) | 4.85
41 | COc1ccccc1/C=C/CN1CCCC(CCC(=O)NCc2ccc(F)c(F)c2)C1 (stereo not shown) | -70
42 | Cc1ccc(S(=O)(=O)NC(C)C(=O)Nc2cccc([N+](=O)[O-])c2)cc1 (stereo not shown) | -10.2
43 | COc1ccc(CNC(=O)CN(C(=O)Cn2nnc(-c3ccccc3F)n2)c2ccc(C)cc2)cc1 | -7.34
44 | COc1c2occc2c(OC(C)=O)c2c(=O)cc(C)oc12 | 17.2

Row | Structure (SMILES) | hERG current change (%, negative = inhibition) at 10uM [%]
45 | O=S(=O)(NC1CCCCC1N1CCCCC1)c1ccccc1 (stereo not shown) | 15.8
46 | O=C(NCc1cccs1)C1CCN(S(=O)(=O)N2CCCC2)CC1 | -1.59
47 | Cc1c(NC(=O)c2ccc(S(=O)(=O)N3CC(C)OC(C)C3)cc2)c(=O)n(-c2ccccc2)n1C (stereo not shown) | -4.38
48 | COc1cccc2c1cc1c(=O)n(CC(=O)NCCCN3CCN(C)CC3)nc(C)n12 | 8.19
49 | O=C(NCc1ccco1)c1cccc2c1C(=O)N(C1CCCCC1)C2 | -0.569
50 | COc1cc(C2C(C#N)=C(N)OC3=C2C(=O)CCC3)c([N+](=O)[O-])cc1OC (stereo not shown) | -1.77
51 | O=S(=O)(c1ccc2c(c1)OCO2)N1CCN(c2nnnn2-c2ccccc2)CC1 | -14.2
52 | O=C(Nc1cccc(-c2cccc(F)c2)c1)C1CCN(C2CCC2)CC1 | -71.5
53 | N#Cc1ccc(NC(=O)Cn2c3[n+](c4ccc(C(F)(F)F)cc42)CCCCC3)cc1.[Br-] | 7.73
54 | COC(=O)c1sc2ncn(N)c(=O)c2c1C | 13.4
55 | Cc1ccc(Cl)cc1N=C(N)N=C(N)N | -1.74
56 | Cc1nc(N)sc1N=Nc1ccccc1C(F)(F)F | 19.1
57 | COc1cc(C(=O)NCC(c2ccco2)N2CCCC2)ccc1OCc1ccccc1 (stereo not shown) | -40.5
58 | COc1cc(OC)cc(N(C(=O)CNC(=O)c2cccs2)C(C(=O)NCC2CCCO2)c2ccc(OC)c(OC)c2)c1 (stereo not shown) | -0.545
59 | Cc1ccc(NC(=O)C2CCCN(c3cnccn3)C2)c(C)c1 (stereo not shown) | -16.3
60 | CC(NC(=O)c1ccccc1)c1ccc(Br)cc1 (stereo not shown) | 18.1
61 | CC(=O)c1cccc(N(C(=O)c2cnccn2)C(C(=O)NCc2ccccc2)c2ccco2)c1 (stereo not shown) | 8.88
62 | CC(CNC(=O)c1ccc(OC2CCN(Cc3ccccn3)CC2)cc1)Oc1cccnc1 (stereo not shown) | -21.9
63 | CCOc1ccccc1NC(=O)COc1ccc(S(=O)(=O)N2CCCC2)cc1 | -4.32
64 | CCN(C(=O)COC(=O)c1cccnc1SC)c1c(N)n(Cc2ccccc2)c(=O)[nH]c1=O | 4.47
65 | O=C(O)c1ccccc1C(=O)NC1CCCc2ccccc21 (stereo not shown) | 8.96
66 | Cc1cc2[nH]c(=O)c(=O)[nH]c2cc1S(=O)(=O)NC1CCCCC1C (stereo not shown) | -4.27

Row | Structure (SMILES) | hERG current change (%, negative = inhibition) at 10uM [%]
67 | CN(C)CCNC(=O)C(=O)Nc1cc2c3c(c1)CCN3C(=O)CC2 | 28.5
68 | c1cc2c(cc1-c1[nH]ncc1CN1C[C@H]3CC[C@H]1C3)OCO2 | -3.58
69 | CCOCC(=O)Nc1cccc(SC)c1 | 2.88
70 | Cc1cccc(/C=N\NC(=O)c2sccc2-n2cccc2)c1 | 12.7
71 | COc1cccc(C(=O)NCC(c2cccs2)N2CCc3ccccc32)c1 (stereo not shown) | 3.3
72 | CC(=O)c1c(C)nc2cc(Cl)ccc2c1N | -17.3
73 | COc1ccc(-c2ccc3c(c2)S(=O)(=O)c2cccc(C(=O)NC4CCCC4)c2C3=O)cc1OC | 16.9
74 | CCn1cc(C(=O)O)c(=O)c2cnc(N3CCN(C(=S)NC(=O)c4ccccc4)CC3)nc21 | 7.34
75 | O=C(CNC(=O)OCc1ccccc1)Oc1cc2oc(=O)cc(-c3ccccc3)c2cc1Cl | 8.89
76 | O=C(COC(=O)COc1ccccc1)Nc1ncc([N+](=O)[O-])s1 | 3.09
77 | O=C(Cc1noc2ccccc12)NNC(=S)Nc1ccc(Cl)cc1 | 16.5
78 | Cc1cccc(CCNC(=O)C2CCN(S(=O)(=O)c3cccc4cccnc34)CC2)c1 | -16.3
79 | Nc1c(Cl)cc(-c2cn(CCC(=O)O)c(-c3ccncc3)n2)cc1Cl | 14
80 | COc1cc(S(=O)(=O)N2CCCCC2)ccc1NC(=O)c1ccccc1Cl | -24.6
81 | Cc1ccccc1C(=O)c1cccn1CC(=O)N1CCCCC1 | 10.6
82 | CCOC(=O)c1c(N)sc(N)c1C(=O)OCC | 4.14
83 | CCN(C(=O)CSc1nnc(Cn2nnc3ccccc32)o1)c1nc(C)cs1 | 2.43
84 | COc1ccc(N=Nc2ccc(O)c3ncccc23)cc1 | 18.5
85 | CCCC[C@@H]1C[C@H]1[C@@H](NC(=O)c1ccco1)c1ccc(C(=O)OC)cc1 | -34
86 | CCCc1nnc(NC(=S)Nc2ccccc2)s1 | 25.6
87 | COc1ccc(NC(=O)CN(C)C(=O)C2CCCO2)cc1 (stereo not shown) | -7.74
88 | COc1cccc(C(=O)N(Cc2cccs2)C2CCS(=O)(=O)C2)c1 (stereo not shown) | 15.7
